The data set in a line: Size exclusion chromatography (SEC), percent monomer. The class given is physicochemical. To be noted: Table 19, after protein A purification. The method, then:
The antibodies were purified utilizing pH dependent, protein A purification (HiTrap MabSelect SuRe 5 mL). After purification, the antibodies were buffer exchanged into 1× DPBS using zeba spin columns. The recovery and relative stability as determined by size exclusion chromatography (SEC) analysis varied between the humanized antibodies (SEC profiles not shown). The nomenclature sometimes takes the form of hF6 xky-rep where h stands for humanized, F6 stands for F12P16F6-derived, x stands for the first letter of the first procedure used to generate the humanized heavy chain sequence (e.g., x can be a=abb, s=sdr, f=fra, or c=cdr), k stands for kappa light chain, and y stands for the first letter of the first procedure used to generate the humanized light chain sequence (a=abb, s=sdr, f=fra, c=cdr).
(In general: SEC sorts molecules by how far they enter the pores of the column.)

B1: F6 cks-rep (hF6): humanized anti-CD138 IgG1/kappa antibody; VH SEQ ID NO:90, VL SEQ ID NO:41; heavy chain SEQ ID NO:93, light chain SEQ ID NO:44 (antibody)
heavy: QVQLVQSGAEVVKPGASVKLSCKASGYTFTSYYLYWVKKAPGQGLDWIGEIYPRSGGTNINEKFLSRVTLTADTSTSTAYLELSSLTSEDTAVYYCTRSLLYWGQGTTLTVSS[letters of human IgG1 constant region left out]
light: DVVMTQTPLSLSVTPGQPASISCKSSQSLLASDGKTYLNWLLQRPGQSPKRLIYLVSKLDSGVPNRFSGSGSGTDFTLQISRVEAEDVGLYYCWQGAHFPFTFGSGTKLEIKRTVAAPSVFIFPPSDEQLKSGTASVVCLLNNFYPREAKVQWKVDNALQSGNSQESVTEQDSKDSTYSLSSTLTLSKADYEKHKVYACEVTHQGLSSPVTKSFNRGEC
modifications: Humanized Heavy chain; Humanized Light chain variable region
On to B1, for which the “SEC % Monomer” value was determined as 99.3%.

The values above are taken from patent publication US20220249679A1 (Mitsubishi Tanabe Pharma Corporation, priority 2018, published 2022).
